{
  "source": "paper PMC4336329",
  "about": "(PLoS ONE, 2015)",
  "note": "Hit rate of the full screen: of about 310,000 compounds, about 14,000 (4.5%) showed an effect of 50% or more. Effects have a minus sign here. The list shows a part of the results.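 Also: peak tail current of the secondary pulse compared with the same well before compound.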",
  "data": [
    {"molecular_target": "human ether-à-go-go-related gene (hERG) potassium channel (human, UniProt Q12809)", "sequence (Q12809 whole entry, looked up)": "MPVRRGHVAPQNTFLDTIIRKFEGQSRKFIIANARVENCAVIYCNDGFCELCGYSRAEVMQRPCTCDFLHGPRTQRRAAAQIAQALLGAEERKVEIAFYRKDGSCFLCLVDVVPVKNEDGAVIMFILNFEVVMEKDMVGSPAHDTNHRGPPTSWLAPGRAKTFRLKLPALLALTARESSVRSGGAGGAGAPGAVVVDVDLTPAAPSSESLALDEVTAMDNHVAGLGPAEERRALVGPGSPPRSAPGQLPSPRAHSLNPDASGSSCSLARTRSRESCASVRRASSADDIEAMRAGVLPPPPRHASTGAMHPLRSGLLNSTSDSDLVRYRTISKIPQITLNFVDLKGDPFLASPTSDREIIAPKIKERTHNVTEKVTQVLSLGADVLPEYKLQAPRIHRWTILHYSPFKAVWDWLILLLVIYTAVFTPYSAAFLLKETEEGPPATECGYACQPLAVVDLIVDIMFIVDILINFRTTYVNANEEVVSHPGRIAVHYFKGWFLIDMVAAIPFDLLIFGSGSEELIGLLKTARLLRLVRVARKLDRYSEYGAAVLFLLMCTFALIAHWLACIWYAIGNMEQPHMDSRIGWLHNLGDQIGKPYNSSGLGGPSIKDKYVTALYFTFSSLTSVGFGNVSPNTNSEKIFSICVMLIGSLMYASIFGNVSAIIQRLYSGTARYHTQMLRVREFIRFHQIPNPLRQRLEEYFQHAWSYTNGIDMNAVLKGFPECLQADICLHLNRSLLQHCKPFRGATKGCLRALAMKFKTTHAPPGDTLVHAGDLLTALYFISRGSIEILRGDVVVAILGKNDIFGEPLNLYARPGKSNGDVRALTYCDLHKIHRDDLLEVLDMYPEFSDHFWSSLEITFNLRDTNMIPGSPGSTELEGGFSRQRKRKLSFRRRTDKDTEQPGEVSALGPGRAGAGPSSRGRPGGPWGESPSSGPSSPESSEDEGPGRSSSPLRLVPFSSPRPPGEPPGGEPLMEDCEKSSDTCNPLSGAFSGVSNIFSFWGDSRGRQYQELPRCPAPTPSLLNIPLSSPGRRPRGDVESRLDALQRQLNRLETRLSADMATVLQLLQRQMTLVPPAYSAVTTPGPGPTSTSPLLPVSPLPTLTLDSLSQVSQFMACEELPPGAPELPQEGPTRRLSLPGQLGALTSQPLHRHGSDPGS", "assay": "primary screen, population patch clamp on CHO cells stably expressing hERG", "units": {"hERG current change (%, negative = inhibition) at 10uM": "%"}, "values": [
      {"smiles": "CC(Nc1c([N+](=O)[O-])c(=O)oc2ccccc12)C(Cl)c1ccccc1", "note": "(centres unmarked)", "hERG current change (%, negative = inhibition) at 10uM": 4.25},
      {"smiles": "N#CCCN(C(=O)CCl)c1cccc(Cl)c1", "hERG current change (%, negative = inhibition) at 10uM": 6.52},
      {"smiles": "Cc1csc(NC(=O)CSc2nccn2C)n1", "hERG current change (%, negative = inhibition) at 10uM": 7.95},
      {"smiles": "O=C(NCc1ccco1)c1ccccc1NS(=O)(=O)c1cccs1", "hERG current change (%, negative = inhibition) at 10uM": 3.9},
      {"smiles": "COc1ccc(NC(=O)c2sc3ncn(CC(=O)N4CCN(c5ccccn5)CC4)c(=O)c3c2C)c(OC)c1", "hERG current change (%, negative = inhibition) at 10uM": 19.5},
      {"smiles": "CC(C)CN=C(NS(=O)(=O)c1ccccc1)C(Cl)(Cl)Cl", "hERG current change (%, negative = inhibition) at 10uM": 2.84},
      {"smiles": "CN(CCC1CCOCC1)C(=O)CC1C(=O)NCCN1Cc1cccc(F)c1", "note": "(centres unmarked)", "hERG current change (%, negative = inhibition) at 10uM": 17.7},
      {"smiles": "O=C(NCc1nc2ccccc2[nH]1)C1=C[C@H](C2CC2)C[C@H](OCCCCO)O1", "hERG current change (%, negative = inhibition) at 10uM": -9.4},
      {"smiles": "Cc1cc(C)c(S(=O)(=O)N2CCN(c3ccc([N+](=O)[O-])c(NCC4CCCO4)c3)CC2)c(C)c1", "note": "(centres unmarked)", "hERG current change (%, negative = inhibition) at 10uM": 18.9},
      {"smiles": "COc1ccc(Sc2nc3ccccc3n3c(C(F)(F)F)nnc23)cc1", "hERG current change (%, negative = inhibition) at 10uM": 7.55},
      {"smiles": "CC(C)(C)NCCOc1ccc(Br)cc1.Cl", "hERG current change (%, negative = inhibition) at 10uM": -20.4},
      {"smiles": "CCn1c(SCC(=O)c2cccs2)nnc1-c1ccco1", "hERG current change (%, negative = inhibition) at 10uM": -2.68},
      {"smiles": "COc1ccc(OC)c(NC(=O)c2cc3ccccc3cc2OC)c1", "hERG current change (%, negative = inhibition) at 10uM": 2.44},
      {"smiles": "COc1ccc(OCCSc2nc(N)cc(=O)[nH]2)cc1", "hERG current change (%, negative = inhibition) at 10uM": -1.77},
      {"smiles": "CCN(CC)CCC(=O)N1c2ccccc2CCc2ccc(NC(=O)OC(C)C)cc21", "hERG current change (%, negative = inhibition) at 10uM": -40.6},
      {"smiles": "O=C(Nc1ccc(Cl)cc1)c1sccc1-n1cccc1", "hERG current change (%, negative = inhibition) at 10uM": -8.31},
      {"smiles": "Cn1c(CNC(=O)c2ccccc2F)nnc1SCC(=O)Nc1nncs1", "hERG current change (%, negative = inhibition) at 10uM": 11.9},
      {"smiles": "c1ccc(-c2cc(CSc3nc4ccccc4[nH]3)on2)cc1", "hERG current change (%, negative = inhibition) at 10uM": 12.4},
      {"smiles": "CC1(C)CC(=O)C=C(NCCN2CCN(C(=S)Nc3ccc(F)cc3)CC2)C1", "hERG current change (%, negative = inhibition) at 10uM": 6.5},
      {"smiles": "COc1ccc(NC(=O)c2cc(-c3ccc(C)o3)nc3ccccc23)cc1", "hERG current change (%, negative = inhibition) at 10uM": 21.9},
      {"smiles": "Oc1ccc(CNCC2COc3ccccc3O2)cc1", "note": "(centres unmarked)", "hERG current change (%, negative = inhibition) at 10uM": 4.89},
      {"smiles": "CCCCn1c(SCC(=O)N2CCCC2=O)nc2cc(S(N)(=O)=O)ccc21", "hERG current change (%, negative = inhibition) at 10uM": -34},
      {"smiles": "CCCCCc1nc2c(c(=O)c3ccccc3n2C)c(=O)n1Cc1ccc(OC)cc1", "hERG current change (%, negative = inhibition) at 10uM": -5.2},
      {"smiles": "CCCCn1c(CN2CCN(c3cccc(Cl)c3)CC2)nc2c1c(=O)n(C)c(=O)n2C", "hERG current change (%, negative = inhibition) at 10uM": -56.3},
      {"smiles": "COc1ccc2cc(CCOC3CCCCO3)ncc2c1", "note": "(centres unmarked)", "hERG current change (%, negative = inhibition) at 10uM": -9.87},
      {"smiles": "Cc1ccccc1NC(=O)c1ccco1", "hERG current change (%, negative = inhibition) at 10uM": 15},
      {"smiles": "Nn1c(Cc2cccc3ccccc23)nnc1SCc1c(Cl)cccc1Cl", "hERG current change (%, negative = inhibition) at 10uM": -1.8},
      {"smiles": "N#CCC(=O)NCCCOC(=O)Nc1ccc(Cl)c(Cl)c1", "hERG current change (%, negative = inhibition) at 10uM": -5.37},
      {"smiles": "CC(C)c1nc2sc3c(c2c(=O)n1N)CC(C)(C)OC3", "hERG current change (%, negative = inhibition) at 10uM": 8.71},
      {"smiles": "COc1ccc(NC(=S)N2CCc3ccccc32)cc1OC", "hERG current change (%, negative = inhibition) at 10uM": 27.9},
      {"smiles": "CCOC(=O)C1CCN(S(=O)(=O)c2ccc3c(c2)CC(C)N3C(=O)C2CC2)CC1", "note": "(centres unmarked)", "hERG current change (%, negative = inhibition) at 10uM": 2.69},
      {"smiles": "CC(C)OC(=O)/C(=C\\c1ccc2c(c1)c1ccccc1n2C)NC(=O)c1ccccc1", "hERG current change (%, negative = inhibition) at 10uM": 8.01},
      {"smiles": "O=C(c1ccc(Cl)c(Cl)c1)N1CCC(=O)N(C(CO)Cc2ccccc2)CC1", "note": "(centres unmarked)", "hERG current change (%, negative = inhibition) at 10uM": 5.42},
      {"smiles": "Cc1nnc(NC(=O)c2cc3ccccc3o2)s1", "hERG current change (%, negative = inhibition) at 10uM": -4.96},
      {"smiles": "Clc1ccc2c(NCc3ccccn3)ccnc2c1", "hERG current change (%, negative = inhibition) at 10uM": -39.7},
      {"smiles": "Cc1cc(S(=O)(=O)n2[nH]c(=O)c(CCO)c2C)c(Cl)cc1Cl", "hERG current change (%, negative = inhibition) at 10uM": 8.77},
      {"smiles": "CCOc1ccc(NC(=O)N(CCN2CCOCC2)Cc2ccc3c(c2)CCCN3CC)cc1", "hERG current change (%, negative = inhibition) at 10uM": -7.62},
      {"smiles": "CC1=CC(C)(C)[N+](C)=CN1c1ccccc1.[I-]", "hERG current change (%, negative = inhibition) at 10uM": -7.2},
      {"smiles": "O=C(Nc1ccc(N2CCOCC2)c(Cl)c1)c1ccc(-n2cnnc2)cc1Cl", "hERG current change (%, negative = inhibition) at 10uM": -16.9},
      {"smiles": "Cc1cc(N2CCOCC2)n2ncc(-c3ccc(Cl)cc3)c2n1", "hERG current change (%, negative = inhibition) at 10uM": 10.1},
      {"smiles": "Cc1ccc(NC(=O)C[n+]2cc(-c3ccccc3)n3c2CCC3)c(C)c1.[Cl-]", "hERG current change (%, negative = inhibition) at 10uM": -9.62},
      {"smiles": "Cc1cc(C)nc(SCC(=O)N/N=C/c2cccn2-c2cccc(C(F)(F)F)c2)n1", "hERG current change (%, negative = inhibition) at 10uM": -24.1},
      {"smiles": "CC(=O)Nc1ccc(S(=O)(=O)NCCC(=O)N2CCC(Cc3ccccc3)CC2)cc1", "hERG current change (%, negative = inhibition) at 10uM": -26.9},
      {"smiles": "N#Cc1ccc(-c2nc3ccc(Br)cc3c(=O)n2O)cc1", "hERG current change (%, negative = inhibition) at 10uM": 18.3}
    ]}
  ]
}
